The results in this text go back to PubChem BioAssay AID1508624 (National Center for Advancing Translational Sciences (NCATS), 2021).

Among all 48,000 compounds or so, about 120 (0.25%) were called active. About 4% were inconclusive and are not listed. Calls come from the whole dose curve; as a rule, active = well fitted activation curve with a large enough effect; inconclusive = small, poorly fitted or top-dose-only effect, or another doubt; inactive = no such curve, though single readings can be large or run the other way. The list shows a part of the results.

The nature of the assay: Primary qHTS for Identification of Small Molecule Activators of Huntingtin-Antisense Promoter Activity. Note: nearly all actives have a fitted effect of over 55% in size. Particulars: HEK293 HTT-AS promoter firefly luciferase reporter, 24 h; series mostly up to 57.5 µM; activity change, positive = activation: at the top concentration. In short, it runs like this: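 HEK293 Fluc reporter, 2,500 cells/well, 24 h pre-culture; cpds up to 57.5 uM final, 24 h 37 degrees C; Dual-Glo, 10 min RT; normalized vehicle = 0%, zero RLU = -100%.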
As for `COc1ccccc1CNC(=O)CCC1N=C2c3ccccc3N=C(SCc3ccc(C)cc3C)N2C1=O` (configuration not stated), the “activity change, positive = activation” value was inactive: -27.1%. With `COc1ccc(NC(=O)CN(c2cc(C)cc(C)c2)S(=O)(=O)c2c(C)noc2C)cc1Cl` the figure was inactive: -36.8%; with `Fc1cccc(-n2ncc3c2ncn2nc(Cc4ccccc4)nc32)c1`, inactive: -12%; with `COc1ccc(-c2nc(SCC(=O)Nc3ccc4c(c3)OCCO4)c(-c3ccc(C)cc3)[nH]2)cc1OC`, inactive: -32.5%. Regarding `COc1ccc(NC(=O)CSc2ccc3nc(-c4ccccc4)cn3n2)cc1OC`, the “activity change, positive = activation” value was inactive: 5.98%. As for `CC(C)NC(=O)c1nn(-c2ccccc2F)nc1CO`, the figure is inactive: -13.1%; as for `CC(N=C(NC#N)Nc1ccncc1)C(C)(C)C` (configuration not stated), inactive: -7.29%. As for `Cc1ccc(CNC(=O)CN2C(=O)COc3ccc(S(=O)(=O)Nc4ccccc4)cc32)cc1`, the figure is inactive: -17.9%; as for `CC(C)(C)OC(=O)N1CCC(c2nnc(SCc3cccc(Cl)c3)o2)CC1`, inactive: -33.4%. Regarding `Cc1ccc(C(=O)c2c(N)c(-c3nc(-c4ccc5c(c4)OCO5)cs3)c3ccccn23)cc1C`, the “activity change, positive = activation” value is inactive: 5.05%. As for `Cc1cccc(N2CCN(C(=O)Cc3c(C(=O)O)c(C)cn3C)CC2)c1C`, the “activity change, positive = activation” value was inactive: -20.9%. On to `Cc1ccc(C(=O)Nc2cc(-c3nc4ncccc4o3)ccc2C)c(C)c1`, for which the “activity change, positive = activation” value was inactive: -2.56%. As for `CC(=O)N1CCc2c(sc3c2c(=O)n(Cc2ccccc2)c(=O)n3Cc2ccc(C)cc2)C1`, the figure is inactive: -13.8%; as for `COC(=O)c1ccc(Cn2cnc3nc4c(cc3c2=O)CCCC4)cc1`, inactive: 10.6%. For the compound `CCC(Cc1ccccc1)NC(=O)CN1C(=O)COc2ccc(S(=O)(=O)N3CCCCCC3)cc21` (configuration not stated), the “activity change, positive = activation” value is inactive: -28.6%. Consider `Cc1cc2c(cc1NC(=O)c1ccccc1C)n(C)c(=O)c(=O)n2C`, for which the “activity change, positive = activation” value is inactive: -8.77%.

Regarding `COc1ccc(CCNC(=O)CCCn2c(=O)c3cccn3c3ccccc32)cc1OC`, the “activity change, positive = activation” value is inactive: 1.14%. As for `CCOCCCNC(=O)C1CCN(C(=O)c2cc3sccc3n2C)CC1`, the figure is inactive: -7.83%; as for `CCc1ccc(CNC(=O)CCCN2C(=O)CCn3nc(-c4cccn4C)cc32)cc1`, inactive: 2.7%; as for `COc1ccc(NC(=O)CCCN2C(=O)C(c3ccccc3)Oc3cccnc32)c(OC)c1` (configuration not stated), inactive: -21.3%. For the compound `CCc1ccc2oc(C(=O)Nc3cccc(Cl)c3C)cc(=O)c2c1`, the activity change, positive = activation was inactive: 5.61% [at 11.5 µM, percent change from vehicle, -100% = no light]. Take `CC(C)CCN(Cc1ccco1)C(=O)c1cc2c(s1)-c1ccccc1OC2`: the “activity change, positive = activation” value was inactive: -25.9%.

Turning to `O=C(COc1ccccc1)OCc1cc(=O)n2nc(C3CC3)sc2n1`, the “activity change, positive = activation” value was inactive: 7.15%. As to `COc1cc(-c2nnc(SCCOc3ccc(Cl)cc3)o2)cc(OC)c1OC`, the “activity change, positive = activation” value was inactive: -16.4%. With `O=C(Nc1ccc(O)c(-c2nc3ccccc3o2)c1)c1sc2ccccc2c1Cl`, the “activity change, positive = activation” value is inactive: -23.6%. As for `O=C(CSCc1cnn(-c2ccccc2)c1-n1cccc1)NCc1ccc(Cl)cc1`, the “activity change, positive = activation” value is inactive: -26%. As to `Cc1nc2ccn(Cc3ccccc3)c(=O)c2cc1C(=O)N1CCN(c2ccccc2F)CC1`, the “activity change, positive = activation” value was inactive: -20.9%.

Take `Cc1cc(F)ccc1S(=O)(=O)Nc1ccc2oc3c(c2c1)CC(C)CC3` (configuration not stated): the “activity change, positive = activation” value was inactive: -30.5%. Consider `Cc1cccc(C2C=C(c3ccc(C)c(C)c3)Nc3nnnn32)c1` (configuration not stated), for which the “activity change, positive = activation” value is inactive: -19.1%.

For `CCOc1ccccc1C(=O)NC1(C(F)(F)F)NC(=O)N(CCc2ccc(OC)c(OC)c2)C1=O` (configuration not stated), the “activity change, positive = activation” value is inactive: -34.5%.

`COc1cc(OC)cc(-c2cc3nc(C)c(CCC(=O)NCc4ccccc4)c(C)n3n2)c1`: the “activity change, positive = activation” value is inactive: -86.4%. On to `CC(C)c1ccc(NC(=O)c2ccc3c(c2)CCN3S(=O)(=O)c2ccccc2)cc1`, for which the “activity change, positive = activation” value was inactive: -14.6%. Turning to `O=C(Nc1nnc(S(=O)(=O)N2CCCc3ccccc32)s1)c1ccccc1Cl`, the “activity change, positive = activation” value is inactive: -15.1%. With `CCOc1ccccc1CNC(=O)C1CCN(S(=O)(=O)c2ccc3[nH]c(=O)ccc3c2)CC1` the figure was inactive: -5.32%; with `CCOc1ccccc1NC(=O)Cn1ncc2c(=O)oc3ccc(C)cc3c21`, inactive: -5.49%; with `CCOC(=O)c1c(C)oc2ncnc(Nc3ccc(OC)cc3OC)c12`, inactive: 4.52%. For the compound `COc1ccccc1NC(=O)CSC1=Nc2ccccc2C2=NC(CCC(=O)NCCc3ccccc3)C(=O)N12` (configuration not stated), the “activity change, positive = activation” value was inactive: -3.91%. Turning to `COc1ccc(N2CCN(C(c3ccccc3)c3sc4nc(-c5ccco5)nn4c3O)CC2)cc1` (configuration not stated), the “activity change, positive = activation” value was inactive: -13.8%.

As to `Cc1ccc(C(=O)N2CCc3cc(CNS(=O)(=O)c4cccs4)ccc32)cc1`, the “activity change, positive = activation” value was inactive: -50.3%. As for `CN1C(=O)Cc2cc(S(=O)(=O)NCCc3ccc(Cl)cc3)ccc21`, the “activity change, positive = activation” value is inactive: -6.21%.

`COc1ccc(-c2noc(CSc3nnc(C)n3-c3ccc(C)cc3)n2)cc1OC`: the “activity change, positive = activation” value is inactive: -37%. On to `Nc1nc2c(ncn2CCC(CO)CO)c(=O)[nH]1`, for which the “activity change, positive = activation” value is inactive: -12.8%. In the case of `Cc1ccc(-n2cc(C(=O)Oc3cccc(C)c3)c3ccccc3c2=O)cc1`, the “activity change, positive = activation” value was inactive: -9.19%. `COc1cccc(NC(=O)CSC2=Nc3ccccc3C3=NC(CCC(=O)NCCc4ccccc4)C(=O)N23)c1` (configuration not stated): the “activity change, positive = activation” value is inactive: -24.6%. Take `Cc1cccc(NC(=O)c2ccc3nc(C(C)C)oc3c2)c1C`: the “activity change, positive = activation” value was inactive: -37.3%. Take `O=c1c2ccccc2n(Cc2ccccc2Cl)c(=O)n1CCc1ccccc1`: the “activity change, positive = activation” value was inactive: -8.58%.

As for `CCOC(=O)c1ccc(Nc2nc3ccc(C(=O)c4ccccc4)cc3n3c(C)nnc23)cc1`, the “activity change, positive = activation” value is inactive: -16.6%.
